Results taken from the supplement of paper PMC3334620.
Over roughly 33,000 sequences, “E-score (-0.5 to 0.5)” has its median near -0.043; the highest 2% begin near 0.37. The list shows a part of the results.

target: T1, Upc2 (UniProt Q12151); assay: PBM E-score (8-mer binding enrichment) (E-score (-0.5 to 0.5)); higher = stronger / more preferred TF binding; most listed sequences are background and not binding sites; settings: protein concentration: 200 nM; construct: GST-full length
T1 sequence: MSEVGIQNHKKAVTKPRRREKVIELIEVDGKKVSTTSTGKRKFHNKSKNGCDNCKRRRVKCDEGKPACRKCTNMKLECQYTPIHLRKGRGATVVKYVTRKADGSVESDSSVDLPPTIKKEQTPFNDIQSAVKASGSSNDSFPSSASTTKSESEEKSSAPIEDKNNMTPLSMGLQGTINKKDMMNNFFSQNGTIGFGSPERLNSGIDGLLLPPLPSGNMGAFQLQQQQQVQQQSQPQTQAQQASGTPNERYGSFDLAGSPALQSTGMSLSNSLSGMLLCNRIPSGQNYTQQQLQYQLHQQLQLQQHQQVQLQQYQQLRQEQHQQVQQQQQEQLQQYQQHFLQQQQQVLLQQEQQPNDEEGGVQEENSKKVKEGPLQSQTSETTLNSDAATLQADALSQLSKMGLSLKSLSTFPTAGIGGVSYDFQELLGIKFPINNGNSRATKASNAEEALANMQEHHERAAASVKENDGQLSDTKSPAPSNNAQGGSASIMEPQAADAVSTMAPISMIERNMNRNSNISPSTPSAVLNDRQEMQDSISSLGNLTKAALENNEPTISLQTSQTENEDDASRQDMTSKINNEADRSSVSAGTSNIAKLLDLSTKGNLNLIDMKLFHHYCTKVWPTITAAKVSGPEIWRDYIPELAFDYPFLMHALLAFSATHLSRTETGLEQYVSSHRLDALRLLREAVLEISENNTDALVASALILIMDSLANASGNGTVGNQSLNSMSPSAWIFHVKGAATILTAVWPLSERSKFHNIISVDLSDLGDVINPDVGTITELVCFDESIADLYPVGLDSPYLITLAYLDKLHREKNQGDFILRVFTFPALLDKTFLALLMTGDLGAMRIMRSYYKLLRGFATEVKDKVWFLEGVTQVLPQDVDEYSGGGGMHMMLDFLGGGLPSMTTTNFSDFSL
Procedure, shortened: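 For each ungapped eight-base word taken together with its reverse complement, the Universal PBM Analysis Suite assigned an E-score. Binding data came from GST-tagged yeast transcription factors, applied at about 100-200 nM, on universal all-10-mer Agilent arrays made double-stranded by primer extension. Fluorescent anti-GST marked bound protein, and scans were normalised with masliner.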

| Sequence | PBM E-score |
| --- | --- |
| GAGTGTTA | -0.0834 |
| ACTTTGAT | -0.225 |
| AAAGTACA | 0.13 |
| ACCGGATG | 0.0233 |
| AGGATGAT | -0.0716 |
| CGACGCGA | 0.0689 |
| GGCATCCC | -0.283 |
| GGCTCAGA | -0.0243 |
| CCGGGTCG | 0.124 |
| CGGCAAGA | -0.0769 |
| ACGGTGCT | 0.158 |
| GGCACTAA | -0.185 |
| CTTGTAGC | -0.194 |
| ACGCGGAC | -0.0315 |
| GCTGGTAC | 0.0549 |
| CCACGCCA | -0.196 |
| GTCGTAGA | 0.386 |
| AGCCCCCT | -0.0968 |
| CATCCAGA | -0.137 |
| CCACACAA | -0.164 |
| CGTGGTGA | -0.184 |
| ACTAGCAA | -0.0127 |
| CGGCGCGA | 0.0234 |
| AGCCCACT | -0.0606 |
| ACCCGATA | 0.186 |

| Sequence | PBM E-score |
| --- | --- |
| CACGTTTC | -0.0911 |
| ATCACTGG | -0.0895 |
| ATGCTCAA | -0.193 |
| ATCTTGCG | -0.0954 |
| ACGCAGTA | 0.144 |
| GGATGTCA | -0.0217 |
| CTCTGCTA | -0.287 |
| CCGTGAGA | -0.314 |
| CATCATAG | -0.144 |
| CCTACCAC | -0.181 |
| ATAGCGGG | -0.104 |
| GGACACAA | -0.071 |
| CAGTCGCG | 0.0786 |
| ACTTAGTC | -0.111 |
| TCTAGCAA | -0.0683 |
| CGTCCTTC | -0.105 |
| AGAAAGGC | -0.139 |
| CGTATAGA | 0.48 |
| GCATCTAA | 0.154 |
| CACGGAAC | 0.0588 |
| ATTCCGAA | 0.0108 |
| CCCTATCG | -0.0955 |
| ATGGGAAC | 0.128 |
| GGAGAGAC | -0.254 |
| AGCTTGTA | 0.0473 |

| Sequence | PBM E-score |
| --- | --- |
| ACTTAGAC | -0.00246 |
| GCCCTACA | -0.0608 |
| ATAAAGAT | 0.0673 |
| ACTTAAAT | -0.136 |
| ACTGTAAG | 0.21 |
| TATAGTGA | -0.0418 |
| TCGTAGCA | 0.39 |
| GTGTTAAC | -0.0236 |
| CGCCCACC | -0.216 |
| ACGCTGTA | 0.16 |
| ACGTAGGA | 0.0483 |
| CTTTAGAA | -0.0609 |
| CTGCCGCA | -0.171 |
| CTATAATC | 0.121 |
| GCCCAGGA | -0.294 |
| TAACTATA | 0.0748 |
| GCGGCAGC | -0.259 |
| GACTAGCA | -0.169 |
| AATCGAAT | 0.0785 |
| GCATTTAA | 0.125 |
| CCATCGCG | 0.00905 |
| GAAGTCCA | -0.273 |
| AGAAGGCA | -0.179 |
| CCGAGCAC | 0.0986 |
| AGCGCCGC | -0.12 |

| Sequence | PBM E-score |
| --- | --- |
| CACCCGAA | 0.0163 |
| AATGCCGA | -0.0575 |
| GTCGTCGA | -0.0294 |
| GGCGAAAA | 0.098 |
| AGCAGAGA | -0.28 |
| ACGAAATG | 0.283 |
| CGGCTTAG | -0.287 |
| ACTCCCTA | -0.00677 |
| CCTAACAC | 0.0225 |
| AGTACGCC | -0.0728 |
| ACGGTCTC | 0.204 |
| ATTAGTCG | 0.278 |
| CACATCAG | -0.174 |
| GGGTAGTA | -0.091 |
| CCGGCTAA | -0.199 |
| CTGGGACA | -0.0359 |
| AACGCACT | 0.141 |
| TAGCGCAA | 0.042 |
| GCGTATTA | 0.0994 |
| GTAGCGCA | 0.0969 |
| AAACTTCT | 0.116 |
| GGCAAGCC | -0.209 |
| AATTTGTG | 0.02 |
| AAGGACAA | -0.0102 |
| AGATTTAT | 0.0852 |

| Sequence | PBM E-score |
| --- | --- |
| AACATAAA | 0.0726 |
| GGGGACGA | -0.193 |
| AATTACAA | -0.198 |
| TTAGGCAA | -0.18 |
| CCATACGG | 0.396 |
| ACAACACG | 0.0954 |
| CCGAGTGA | 0.102 |
| GATACTCA | -0.093 |
| GACTCGCC | -0.046 |
| ACTAGAGG | -0.234 |
| GGGAGCGA | 0.195 |
| GATCTAAA | 0.0875 |
| ATCACTCA | -0.0539 |
| CGCACACC | 0.149 |
| ACGGCTTA | 0.0625 |
| AGACACGA | 0.11 |
| ATCTACCG | 0.0255 |
| TGACTGAA | -0.167 |
| AACTAGAG | -0.226 |
| GGGATGCA | -0.0955 |
| ACAATCTA | 0.0317 |
| CATCTGGG | -0.133 |
| GCTTAGCC | -0.0687 |
| CAACTTCG | 0.0522 |
| CTTCCTGA | -0.0594 |

| Sequence | PBM E-score |
| --- | --- |
| AGCGTCCA | -0.181 |
| AATATTTG | 0.15 |
| CGCGGTGC | -0.14 |
| AGGGGAGG | -0.135 |
| ATCCACAT | 0.00066 |
| AAACAGTG | 0.0714 |
| CAAGCTAA | -0.081 |
| ACGCCAGA | 0.0811 |
| AGACTCCG | -0.196 |
| CGATTGAC | 0.03 |
| ATACGGGA | 0.382 |
| ACCCGACA | 0.0838 |
| CCTATATA | 0.18 |
| CGTAAAGA | 0.412 |
| CAGACCCA | -0.0945 |
| CTGCTAGA | -0.159 |
| GATTGCGA | 0.0592 |
| CATATCAG | -0.165 |
| CGGTTGAC | 0.0663 |
| AGATTCTG | -0.134 |
| CATACATC | -0.0547 |
| GGGTACCC | -0.112 |
| CAAAGCCA | -0.0387 |
| AATACTGG | -0.0741 |
| CCCAGCAC | -0.227 |

| Sequence | PBM E-score |
| --- | --- |
| GCGTCCTA | -0.181 |
| CCCGGCCG | -0.157 |
| AACAGATA | -0.0868 |
| ACCTATAA | 0.141 |
| CTGCTGTC | -0.0411 |
| ATCGAGTC | -0.0489 |
| ACCAGGCC | -0.0273 |
| TAAATCGA | 0.0845 |
| CAGTGGGG | -0.272 |
| GAGGAAAC | -0.0276 |
| CCCGCTAA | -0.0534 |
| GATGCCTA | -0.167 |
| GCGGTGCC | -0.202 |
| GACTTACA | 0.164 |
| CACTAGTA | -0.0329 |
| AACCGTCC | -0.191 |
| ATTAAGAG | -0.0833 |
| ACCAGCCC | -0.186 |
| GATGCCAC | -0.21 |
| AGTTTCGC | 0.0981 |
| ACCTTAAC | 0.15 |
| GGTGTATA | -0.0671 |
